# Reference: PubChem BioAssay AID1240 (Sanford-Burnham Center for Chemical Genomics, 2008)
# About 800 (1.6%) of roughly 50,000 compounds showed an effect of 50% or more. This is one part of the list.
# Molecular target: Bcl-2-like protein 10 (Homo sapiens) (UniProt Q9HD36)
# Test: TR3 peptide-Bcl-B binding displacers, biochemical primary FP assay, phenotype converters (AID 1240);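 further: 0% = Bcl-B with tracer peptide and DMSO and 100% = tracer peptide lacking Bcl-B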
# Details: GST-Bcl-B / FITC-TR3 peptide fluorescence polarization; stronger effect = higher value; compound at 3.75 mg/L
# Chain of UniProt Q9HD36 (Q9HD36 whole entry, looked up): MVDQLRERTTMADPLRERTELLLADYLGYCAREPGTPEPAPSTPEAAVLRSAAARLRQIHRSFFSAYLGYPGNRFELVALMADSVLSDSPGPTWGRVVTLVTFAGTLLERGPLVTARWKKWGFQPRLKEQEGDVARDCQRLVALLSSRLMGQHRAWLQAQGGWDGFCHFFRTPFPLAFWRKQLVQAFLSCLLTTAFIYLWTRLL
row,SMILES,displacement [%]
1,O=C(O)c1ccccc1C(=O)c1ccc(Cl)c(N2C(=O)CCC2=O)c1,-1.3
2,Nc1ccc(S(=O)(=O)Nc2nccc(/C=C\c3ccccc3Cl)n2)cc1,0.4
3,O=C(Nc1nc(-c2ccco2)cs1)c1ccccc1,-12
4,C/C(=C1/SC(N2CCOCC2)=NC1=O)c1ccc(Br)cc1,-19.2
5,Cc1ccc(/C=C(\C#N)c2nc(-c3ccc(C)c(C)c3)cs2)o1,-25.1
6,CCN(CC)C(=O)CSc1nc(O)c(Cc2ccc(OC)cc2)c(=O)[nH]1,6.9
7,CC(C)C(=O)Nc1ccc(Br)c(NC(=O)c2ccccc2)c1,8.7
8,CCCOC(=O)c1cccc(NC(=O)c2cccc(Cl)c2)c1,-9.3
9,CC(=O)Oc1ccc2ccccc2c1C(NC(=O)Cc1ccccc1)c1ccccc1Cl (centres undefined),7.4
10,CCOC(=O)C(C(=O)OCC)=C(N)C(F)(F)F,2
11,O=C(c1ccncc1)N1N=C(C(F)(F)F)CC1(O)c1ccc(Cl)cc1 (centres undefined),10.5
12,CCCC(=O)Nc1cccc(NC(=O)c2cc(Br)ccc2I)c1,7.3
13,COc1ccccc1NS(=O)(=O)c1ccc(Br)c(C(=O)Nc2ccccc2)c1,-5.2
14,COc1ccc(C(=O)N2CCN(CCCc3ccccc3)CC2)cc1OC,-4.5
15,COC(=O)c1ccccc1NC(=O)c1cnn2c(C(F)(F)F)cc(-c3ccccc3)nc12,11.9
16,COc1ccccc1OCC(=O)Nc1ccc(N(C)C)cc1,12.2
17,COc1ccccc1N1C(=O)NC(=O)/C(=C/c2c(OC)ccc3ccccc23)C1=O,1.1
18,C=C(C)Cn1c(SCC(=O)O)nnc1-c1ccc(OC)c(OC)c1,-7.2
19,COc1ccc(NC(=O)C2=C(C)NC(=O)NC2c2ccc(OC)cc2OC)cc1 (centres undefined),-0.2
20,COc1cc(OC)cc(C(=O)NCCCN2CCOCC2)c1,1.2
21,O=c1/c(=C/c2cc(Br)ccc2OCc2ccccc2F)sc2nc3ccccc3n12,1.9
22,Cc1cccc(CSCc2nnc(NC(=O)Nc3ccc(Cl)cc3)s2)c1,-1.4

row,SMILES,displacement [%]
1,Cc1cc(I)ccc1NC(=O)COc1cccc(C)c1C,-5
2,C/C(=N\NC(=O)c1cccc(Br)c1)c1cccnc1,-2.9
3,COc1cc(NC(=O)COc2ccc(F)cc2)c(Cl)cc1NC(=O)c1ccccc1,2.3
4,Cc1c(OCC(=O)O)ccc2c1oc(=O)c1ccccc12,12.1
5,O=C(O)c1ccc(Oc2cccc([N+](=O)[O-])c2)cc1C(=O)O,1.6
6,O=C(Nc1ccc(Cl)cc1)c1cc([N+](=O)[O-])ccc1Cl,14
7,COc1ccccc1N1C(=O)CC(Nc2ccc(C)cc2)C1=O (centres undefined),1.6
8,COC(=O)c1cccc(NC(=O)c2ccccc2)c1,-4.9
9,CCOc1ccc(N(CC(=O)Nc2cccc3ccccc23)S(C)(=O)=O)cc1,2.5
10,COc1ccc(Nc2nc(NCc3ccco3)nc(N/N=C/c3ccc(O)cc3)n2)cc1,-6.9
11,Cc1ccc(-c2nc3cccnc3o2)cc1NC(=O)COc1ccc2ccccc2c1,1.8
12,COc1ccc(C(=O)N2CC(c3ccc(Cl)cc3)CC2=O)cc1 (centres undefined),-4
13,CCOc1ccc2nc(N3C(=O)C4C5c6ccccc6C(c6ccccc65)C4C3=O)sc2c1 (centres undefined),-9.6
14,Cc1ccc2nsnc2c1NC(=O)c1ccc(OCc2ccccc2)cc1,1.8
15,CCOc1cc(/C=C2\SC(=S)N(NC(=O)c3ccccc3Br)C2=O)ccc1O,-30.3
16,O=C(O)C1CCCCC1C(=O)Nc1nc(-c2ccc(Cl)cc2Cl)cs1 (centres undefined),6.3
17,CCOC(=O)C(=CNC(CO)C(=O)O)C(=O)OCC (centres undefined),10
18,CCOC(=O)C1=C(c2ccccc2)N=C2SCC(=O)N2C1c1ccc(OC)c(OC)c1 (centres undefined),0.4
19,COc1ccc(C(=O)NCCC2=CCCCC2)cc1OC,-3.4
20,CCOC(=O)c1cc(C#N)c(SCc2ccccc2)[nH]c1=O,-2.6
21,O=C(Nc1ccc(Cl)c(Cl)c1)c1cc2n(n1)C(C(F)(F)F)CC(c1ccccc1)N2 (centres undefined),10.5
22,COC(=O)c1c(-c2ccccc2Cl)csc1NC(=O)CCC(=O)O,-0.7

row,SMILES,displacement [%]
1,CC(=O)Oc1cc(C)cc2oc(=O)c(Cc3ccccc3)c(C)c12,3.3
2,CCOC(=O)CNC(=O)c1cc(-c2ccc(Cl)c(Cl)c2)nc2ccccc12,1.2
3,CC(=O)C1=C(C)NC(=O)NC1c1cccc([N+](=O)[O-])c1 (centres undefined),0.3
4,COc1cc(C(=O)N2CCN(c3ccccc3)CC2)c([N+](=O)[O-])cc1OC,-7.7
5,COc1cc(/C=N/NC(=O)COc2ccc(Cl)cc2Br)cc(Br)c1O,-3.2
6,C=CCn1c(O)c(/C=C2\C=Nc3ccccc32)c(=O)[nH]c1=S,-2.9
7,Cc1cccc(C)c1NC(=O)C(=O)NCC1CCCO1 (centres undefined),9.2
8,COc1cccc(NC(=O)C2C3CCC4C(CCC32)C4(Cl)Cl)c1 (centres undefined),-5.7
9,O=C(CN1C(=O)C2(OCCO2)c2cc(Br)ccc21)c1ccc(Br)cc1,4
10,O=C(COc1ccc2ccccc2c1)N1CCN(S(=O)(=O)c2ccc(Cl)cc2)CC1,10.1
11,COc1ccc(CN=Cc2ccc(OC3CSC3)cc2)cc1,3.2
12,COc1ccc(C(O)c2nc3ccccc3s2)cc1 (centres undefined),-4.6
13,CC(=O)Nc1ccc(S(=O)(=O)N(Cc2ccccc2)C(C)C)cc1,130
14,O=[N+]([O-])c1ccccc1-c1ccc(/C=N/n2cnnc2)o1,8.8
15,COc1ccc(N/C(C)=C\C(=O)Nc2ccccc2)cc1,-4.2
16,CCc1nc2ccccc2n1CC(O)COc1ccc(OC)cc1 (centres undefined),-11.5
17,CCN(Cc1ccccc1)S(=O)(=O)c1ccc(NC(C)=O)cc1,19.2
18,CCOC(=O)C1=C(C)N(CCOC)C(=O)/C1=C\c1ccc2c(c1)OCO2,10.5
19,COc1nccnc1NS(=O)(=O)c1ccc(NC(=O)c2ccc(S(=O)(=O)N(C)C)cc2)cc1,-4.8
20,O=c1[nH]c2ccc(N=Cc3cn(Cc4ccc(Cl)cc4Cl)c4ccccc34)cc2[nH]1,16.9
21,CCCCC(C(C)=O)C(=O)Nc1ccc(C)cc1 (centres undefined),-3.1
22,O=C(O)c1cccc([N+](=O)[O-])c1C(=O)Nc1ccc(Cl)cn1,-3.5

row,SMILES,displacement [%]
1,O=C(O)c1cc(C(=O)O)cc(N2C(=O)c3cccc4c([N+](=O)[O-])ccc(c34)C2=O)c1,26.7
2,CC1=C(C(=O)Nc2ccc(Br)cc2)C(c2ccc(O)cc2)NC(=S)N1 (centres undefined),4.4
3,CCn1c(/C=C/c2cc(Br)ccc2O)nc2ccccc2c1=O,6.3
4,Cc1ccc(OCC(=O)O/N=C(\N)c2ccc([N+](=O)[O-])cc2)c(Br)c1,-0.6
5,COc1ccccc1C1C(C(C)=O)=C(O)C(=O)N1CCN(C)C (centres undefined),2.7
6,COc1ccc2nc(NC(=S)NC(=O)c3ccco3)sc2c1,-6.4
7,COC(=O)C1=C(C)N(C)C(C)=C(C(=O)OC)C1c1cc(OC)ccc1OC,-6.4
8,COc1ccc(/C=C2/SC(=O)NC2=O)cc1[N+](=O)[O-],2.8
9,c1ccc(CCc2nc(-c3cccnc3)no2)cc1,6.5
10,CCOC(=O)C(CCCOc1ccc(C(C)(C)C)cc1)C(=O)OCC,5.2
11,O=C(CN1C(=O)S/C(=C/c2ccccc2F)C1=O)Nc1ccc(O)cc1,8.5
12,O=C1C2C(c3ccc([N+](=O)[O-])cc3)OC3(C(=O)c4ccccc4C3=O)C2C(=O)N1c1ccc(Cl)cc1 (centres undefined),1.4
13,O=[N+]([O-])c1ccc(C=Nc2ccc3c(c2)Cc2cc([N+](=O)[O-])ccc2-3)cc1,-2.7
14,COc1ccc(Cc2nnc(NC(=O)Nc3ccc(Cl)c(Cl)c3)s2)cc1,8.3
15,COc1ccc(CNCCC(c2ccc(OC)cc2)C2CCOC(C)(C)C2)cc1 (centres undefined),-3.5
16,OC(COC1CCCCC1)Cn1c2ccccc2c2ccccc21 (centres undefined),-9.1
17,O=C(c1nn2c(c1Cl)NC(c1cccs1)CC2C(F)(F)F)N(Cc1ccccc1)Cc1ccccc1 (centres undefined),3.4
18,COC(=O)c1ccc(CSc2nc3sc(C)c(C)c3c(=O)n2-c2ccccc2)cc1,9.5
19,CC(C)(C)c1ccc(OCCN2CCOCC2)cc1,4.5
20,CC(C)NC(=O)c1ccc(CN2CCC(Cc3ccccc3)CC2)cc1,-4.7
21,Oc1cccc(/C=N/Nc2nc(N3CCCC3)nc(N3CCCC3)n2)c1,5.8
22,O=C(COc1cccc2ccccc12)NCCO,14.5

row,SMILES,displacement [%]
1,COc1ccc(CCNC2=CC(=O)CC(c3ccccc3)C2)cc1OC (centres undefined),1.4
2,COc1ccc(CC(=O)N2CCC(Cc3ccccc3)CC2)cc1OC,7.4
3,COc1cc2nc(-c3ccc(Oc4ccc([N+](=O)[O-])cc4)cc3)oc(=O)c2cc1OC,10.6
4,COc1ccc(C(=O)Nc2ccccc2)cc1NC(=O)C(c1ccccc1)c1ccccc1,-1.4
5,COc1ccc(Cl)cc1C(=O)NCc1ccc2c(c1)OCO2,-5.9
6,COc1ccc(-c2c(C#N)c(N)c(C#N)c3c2CCCC3)cc1,4
7,O=C(Nc1ccc2nn(-c3ccc(F)cc3)nc2c1)c1ccc([N+](=O)[O-])cc1,15.8
8,C/C=C/COC(=O)C1=C(C)NC(=O)NC1c1ccc(Cl)cc1 (centres undefined),1.3
9,COC(=O)c1ccc(C(=O)OC)c(NC(=O)COc2ccccc2Cl)c1,73.8
10,O=C(Nc1ccccc1Cl)c1ccc(Br)o1,-0.6
11,O=C(COc1cccc2ccccc12)NCC1CCCO1 (centres undefined),10.9
12,Cc1ccc(C2C(C#N)=C(N)Oc3c2sc2ccccc32)o1 (centres undefined),2.5
13,COc1ccccc1NC(=O)C1=C(C)NC(=O)NC1c1cccc(Cl)c1 (centres undefined),-9.7
14,CC(=O)Nc1ccc(S(=O)(=O)Nc2ccccc2C(N)=O)cc1,-10
15,COc1ccc(C(CC(=O)O)c2ccccc2)cc1 (centres undefined),3.5
16,Cn1nnnc1SCCNS(=O)(=O)c1ccccc1,-9.6
17,O=C(C1CN(S(=O)(=O)c2ccccc2)CCN1S(=O)(=O)c1ccccc1)N1CCCCC1 (centres undefined),4.9
18,Cc1ccc(/C=N/N=C(c2ccccc2)c2ccccc2)s1,-3.3
19,COc1ccc(CCNC(=O)c2cc3ccccc3oc2=O)cc1,-7.8
20,CCC1CCCCN1CCCCOc1cccc(Cl)c1 (centres undefined),-5
21,COc1ccc(NC(=O)C2C3CCC4C(CCC32)C4(Cl)Cl)cc1 (centres undefined),-7.1
